{
  "source": "the supplement of paper PMC11417369",
  "note": "± gives the standard deviation of the averaged measurements. The list shows a part of the results.",
  "data": [
    {"tested_on": "PfAP2-LT AP2 domain (GST-tagged)", "test": "gcPBM binding intensity (ln(normalized median fluorescence intensity)); higher = stronger DNA binding", "method_in_brief": "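An Agilent 4 × 180k array of primer-extended double-stranded 36-bp intergenic genomic probes, with negative controls, was incubated for 1 h with GST-tagged P. falciparum DNA-binding domains expressed in E. coli. Alexa488 anti-GST antibody detected bound protein, scanned at 488 nm. Binding intensity is the highest Masliner-normalised natural-log median intensity across replicate spots of either probe orientation.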", "values": [
      {"sequence": "ATATTATTATTAGTTTCACACATTTAATGAAACTAA [CACACA_site5677]", "gcPBM binding intensity (ln)": "8.56 ± 0.38"},
      {"sequence": "TATAAATTATAAATTGCACACATATTTTTATATTTA [CACACA_site8974]", "gcPBM binding intensity (ln)": "8.78 ± 0.39"},
      {"sequence": "TTACATGTAAAAGGTACACACATTAGATATACAAAT [CACACA_site6651]", "gcPBM binding intensity (ln)": "9.27 ± 0.42"},
      {"sequence": "AATACTCAAAAGAATCGTACAAACAACACTCCCACG [XGTACX_site7564]", "gcPBM binding intensity (ln)": "9.15 ± 0.3"},
      {"sequence": "TATCATACCTTTTAATGTACACACATTTCTTTTTTG [XGTACX_site1655]", "gcPBM binding intensity (ln)": "9.13 ± 0.56"},
      {"sequence": "TATAACTTTTTTAATACACACAAATATTTATTTATA [CACACA_site7425]", "gcPBM binding intensity (ln)": "8.57 ± 0.54"},
      {"sequence": "GGCATACACGAACACACACACACACGCACATATATA [CACACA_site6426]", "gcPBM binding intensity (ln)": "10.5 ± 0.36"},
      {"sequence": "TTTTACGTGAGTAATACACACATATAAGTTTATATA [CACACA_site4120]", "gcPBM binding intensity (ln)": "8.65 ± 0.37"},
      {"sequence": "ATATATATATGTGTGTGTACATATGATTTCGCACTT [XGTACX_site4449]", "gcPBM binding intensity (ln)": "9.71 ± 0.2"},
      {"sequence": "TATACAGATAAATACACACACATATATATATATATA [CACACA_site4178]", "gcPBM binding intensity (ln)": "10.2 ± 0.33"},
      {"sequence": "GTTATAATTTAGTCAAGTACATGCGTATGTATATTC [XGTACX_site3763]", "gcPBM binding intensity (ln)": "8.96 ± 0.3"},
      {"sequence": "CACAGAAATATTCTTATACACACTGTTCTTATATTC [CACACA_site288]", "gcPBM binding intensity (ln)": "8.93 ± 0.45"},
      {"sequence": "TAATATATATTATATACACACATATATATATATATA [CACACA_site428]", "gcPBM binding intensity (ln)": "9.465 ± 0.092"},
      {"sequence": "TACCACTTTCGAAGTAGTACATGGCTTTTTTTTTTT [XGTACX_site8379]", "gcPBM binding intensity (ln)": "8.74 ± 0.42"},
      {"sequence": "TGTATGTTAAATACAACACACAAAAAAAAACAAGTT [CACACA_site4324]", "gcPBM binding intensity (ln)": "9.13 ± 0.5"},
      {"sequence": "ACATATGAATATAATACACACTTGTATTCTTAATAT [CACACA_site5085]", "gcPBM binding intensity (ln)": "8.93 ± 0.35"},
      {"sequence": "ATAATTCCATAAAATAGACACACGAATGTATAATAT [CACACA_site477]", "gcPBM binding intensity (ln)": "9.19 ± 0.42"},
      {"sequence": "CAGTTGTTAATTTGTGTGCACCAAATATTATACATA", "gcPBM binding intensity (ln)": "8.97 ± 0.37"},
      {"sequence": "TATTTGTAAAGACATGCATGGTACTTTTAAAACATA [TGCATGCA_site7]", "gcPBM binding intensity (ln)": "8.67 ± 0.44"},
      {"sequence": "TGTAGATAAAATAAACGTACGTATTGATTTTTTTCA [XGTACX_site1610]", "gcPBM binding intensity (ln)": "8.68 ± 0.35"},
      {"sequence": "TGGTAATACCCATACACACACACATACACATATATA [CACACA_site8877]", "gcPBM binding intensity (ln)": "9.76 ± 0.32"},
      {"sequence": "TTAATATTTGTTCTGATCCTTTTATTCAACTTTTTT [CACACA_negctrl_site536]", "gcPBM binding intensity (ln)": "8.64 ± 0.52"},
      {"sequence": "TTTTCTTTCTTGTTTCGTATATTATAAAAAAAAAAG [CACACA_negctrl_site854]", "gcPBM binding intensity (ln)": "8.04 ± 0.33"},
      {"sequence": "GTATTTTGCATAAATGCATGTAAATATATACCTACC [TGCATGCA_site957]", "gcPBM binding intensity (ln)": "8.8 ± 0.33"},
      {"sequence": "TATTTGGGTATTTTTACACACATTAAAATATATATA [CACACA_site5800]", "gcPBM binding intensity (ln)": "8.69 ± 0.39"},
      {"sequence": "GTAATAAAAAATTAATGTACTTTATATAATATATTA [XGTACX_site5935]", "gcPBM binding intensity (ln)": "8.38 ± 0.54"},
      {"sequence": "TTTTTGTATTCTCCGGACTACATTATGTTGTAAATG [CACACA_negctrl_site691]", "gcPBM binding intensity (ln)": "9.14 ± 0.46"},
      {"sequence": "TCTAATTTAAAATACACACACATATCTATAATATAT [CACACA_site7029]", "gcPBM binding intensity (ln)": "9.19 ± 0.33"},
      {"sequence": "GTATAAAAATTTAGGAGTACAATATATTTATAATAT [XGTACX_site2127]", "gcPBM binding intensity (ln)": "8.66 ± 0.44"},
      {"sequence": "TATTGTATAAAAATAACATGCAATCCTTATACTGCT [TGCATGCA_site345]", "gcPBM binding intensity (ln)": "8.59 ± 0.49"},
      {"sequence": "TGTACAGTAAATACAACACACATTTGTATAAATATA [CACACA_site4705]", "gcPBM binding intensity (ln)": "9.32 ± 0.41"},
      {"sequence": "TAATATATAAAAAGATGTACTTTTGCAAGTTCCTTT [XGTACX_site8519]", "gcPBM binding intensity (ln)": "8.54 ± 0.47"},
      {"sequence": "GGACTTTATAAAAATGGTACACGCAATTCTATAATC [XGTACX_site6515]", "gcPBM binding intensity (ln)": "8.75 ± 0.51"},
      {"sequence": "ATATATATATATGTATGTACGTATGTATGTATGAAT [XGTACX_site4857]", "gcPBM binding intensity (ln)": "9.34 ± 0.23"},
      {"sequence": "GGTACATACAAACACACACACAAAAAAAAAAAAATA [CACACA_site1577]", "gcPBM binding intensity (ln)": "9.65 ± 0.4"},
      {"sequence": "CCATATGATATATATTGTACATTATATATTATTTCT [XGTACX_site1697]", "gcPBM binding intensity (ln)": "8.75 ± 0.45"},
      {"sequence": "TATGTTGTTTATTTAGTGCATATTTAAATATTATAA [GTGCAC_site9601]", "gcPBM binding intensity (ln)": "8.68 ± 0.34"},
      {"sequence": "AATGACATTCTTACACGTACAAAATAAAAAATAAAA [XGTACX_site6932]", "gcPBM binding intensity (ln)": "8.75 ± 0.47"},
      {"sequence": "TATATATTATATTCATGTACGTAAAAATTTTGAATA [XGTACX_site6734]", "gcPBM binding intensity (ln)": "8.46 ± 0.38"},
      {"sequence": "ATTTATTTTATAATATATAAATGATATATCTTATTA [CACACA_negctrl_site66]", "gcPBM binding intensity (ln)": "8.39 ± 0.34"},
      {"sequence": "GTAATCCACAAACACACACACATACACATATATATA [CACACA_site2728]", "gcPBM binding intensity (ln)": "9.98 ± 0.19"},
      {"sequence": "AAAAAAACAACATGCACACGCACACCCAAAAAAAGC [CACACA_site72]", "gcPBM binding intensity (ln)": "9.84 ± 0.32"},
      {"sequence": "ATCATTTTTAATAAATGTACAAGTTTTAAAAAAAAA [XGTACX_site7340]", "gcPBM binding intensity (ln)": "8.34 ± 0.47"},
      {"sequence": "ATATATTACAATATATGTACTTAATTTGCTTAAATA [XGTACX_site7912]", "gcPBM binding intensity (ln)": "8.6 ± 0.52"},
      {"sequence": "AGAGGAAAAATAAAAGGAAAAAAGAAAATAATATTG [CACACA_negctrl_site852]", "gcPBM binding intensity (ln)": "8.57 ± 0.59"},
      {"sequence": "ATAATATTTTAGAGCAGTACACTTTTATATTTATTG [XGTACX_site5728]", "gcPBM binding intensity (ln)": "8.81 ± 0.42"},
      {"sequence": "TAAAACAGAATGAGGAGTACAAAAAGAAGAAAAGGG [XGTACX_site1246]", "gcPBM binding intensity (ln)": "9.09 ± 0.57"},
      {"sequence": "AAAATAAATATTACATGTACATATATATATATATAT [XGTACX_site8492]", "gcPBM binding intensity (ln)": "9.59 ± 0.23"},
      {"sequence": "GGTAGGTGAATATATACACACATATATTATATATAT [CACACA_site1984]", "gcPBM binding intensity (ln)": "9.26 ± 0.42"},
      {"sequence": "TACACATGTTTAAAATGTACGTTTTATAACACACAC [XGTACX_site8229]", "gcPBM binding intensity (ln)": "9.29 ± 0.28"},
      {"sequence": "AAAAAAAATTAAGCATGTATAAATATATATATATAT [CACACA_negctrl_site1540]", "gcPBM binding intensity (ln)": "9.12 ± 0.28"},
      {"sequence": "TTTTACAAGTATTGATAAATAAGAAATATATAAAAT [CACACA_negctrl_site529]", "gcPBM binding intensity (ln)": "8.4 ± 0.48"},
      {"sequence": "GTGTATTTTGTGCGCACACACATGCAAAAAGAAATA [CACACA_site6660]", "gcPBM binding intensity (ln)": "9.67 ± 0.37"},
      {"sequence": "TAACACATAAATAAATATATACATATATATAAAATA [CACACA_negctrl_site375]", "gcPBM binding intensity (ln)": "8.81 ± 0.46"},
      {"sequence": "TTTGTGCCTATAAATTAACACACAGAAATATATAGA [CACACA_site8175]", "gcPBM binding intensity (ln)": "9.06 ± 0.28"},
      {"sequence": "AAAAACTTATATGATACACACGATAAACAAAATAAA [CACACA_site1039]", "gcPBM binding intensity (ln)": "8.99 ± 0.38"}
    ]}
  ]
}
